Our source for the binding signal (normalized occupancy) values is article PMC4242493.

The other results are listed elsewhere or left out. The list includes weakly bound sequences.

The experiment addresses MaxL homodimer (UniProt P61244). The experiment in a line: universal protein-binding microarray (PBM). As to conditions: PBS-based mixture, 10 nM His-tagged protein dimer, 2% milk, 200 ng/uL BSA, 50 ng/uL salmon testes DNA, 0.02% TX-100; detection with Alexa 488 anti-His …; high values mean tight binding; most listed sequences are background and not binding sites; double strand, one strand shown.
Chain of UniProt P61244 (P61244 whole entry): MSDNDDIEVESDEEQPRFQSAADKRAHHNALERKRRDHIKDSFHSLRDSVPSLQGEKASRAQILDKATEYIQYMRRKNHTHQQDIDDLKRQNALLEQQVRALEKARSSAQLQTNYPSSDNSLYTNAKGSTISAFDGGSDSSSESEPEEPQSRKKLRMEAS
In the case of CTTGCAGC, the binding signal (normalized occupancy) was determined as 0.0684.
In the case of ACCCCGTG it was 0.108; in that of ACGAATGG, 0.0768.
Take TAGACTGA: the binding signal (normalized occupancy) is 0.0725.
Consider AAATGTCC, for which the binding signal (normalized occupancy) is 0.0861.
Take TGTGTGAA: the binding signal (normalized occupancy) is 0.0858.
In the case of GTTTAGAA it was 0.0757.
Turning to CCTCCGAC, the binding signal (normalized occupancy) came out at 0.0687.
With CGGAGACA, the binding signal (normalized occupancy) is 0.0704.
For the sequence GTGCCGGA, the binding signal (normalized occupancy) is 0.0753.
As to ACTAGACA, the binding signal (normalized occupancy) stood at 0.0757.
For AGACTATC, the binding signal (normalized occupancy) was 0.0737.
In the case of ACGTGCAG it was 0.101; in that of CCACAACG, 0.0749; in that of CGTTATGA, 0.0829.
Regarding CCTGTTTC, the binding signal (normalized occupancy) worked out at 0.0776.
Consider CTCTTATA, for which the binding signal (normalized occupancy) amounted to 0.0797.
CGGTTCGA: the binding signal (normalized occupancy) stood at 0.0691.
As to AAACCCGA, the binding signal (normalized occupancy) came to 0.0792.
In the case of GCAAACCC, the binding signal (normalized occupancy) is 0.0669.
Regarding ATAATAAG, the binding signal (normalized occupancy) is 0.0821.
Consider AGGCAAAT, for which the binding signal (normalized occupancy) was found to be 0.0733.
Turning to ATAAACCG, the binding signal (normalized occupancy) turned out to be 0.077.
As for GCCTGATA, the binding signal (normalized occupancy) turned out to be 0.0794.
Regarding CAGCCGAA, the binding signal (normalized occupancy) worked out at 0.0724.
In the case of CATCCCGG, the binding signal (normalized occupancy) stood at 0.074.
On to CACATCAG, for which the binding signal (normalized occupancy) was 0.0776.
On to CATCCACA, for which the binding signal (normalized occupancy) amounted to 0.0859.
In the case of AGGCTACG it was 0.0723; in that of GCGTAGCC, 0.0663.
Turning to ACGAAGCG, the binding signal (normalized occupancy) stood at 0.0761.
Take GAACCTAA: the binding signal (normalized occupancy) amounted to 0.0715.
Turning to AGGAGACG, the binding signal (normalized occupancy) stood at 0.0737.
CCGAAGCC: the binding signal (normalized occupancy) is 0.0694.
On to CGAACTCA, for which the binding signal (normalized occupancy) was determined as 0.0718.
On to AGCATATA, for which the binding signal (normalized occupancy) was 0.0807.
With CGCTTCGC, the binding signal (normalized occupancy) was 0.0686.
Next, CCTCCTTA: 0.0752; CCAGATTA: 0.0748.
As to AATGGGGG, the binding signal (normalized occupancy) is 0.0803.
In the case of GTCCACGA, the binding signal (normalized occupancy) was 0.0798.
CGAGACAG: the binding signal (normalized occupancy) was found to be 0.0748.
Take AAGGGAGC: the binding signal (normalized occupancy) came out at 0.0702.
In the case of GCTAGACC it was 0.0672.
As for TAAGACCA, the binding signal (normalized occupancy) was 0.0783.
Regarding AGACTGAA, the binding signal (normalized occupancy) came to 0.0755.
On to ATTCACAG, for which the binding signal (normalized occupancy) came out at 0.0727.
With GTCCCGCA, the binding signal (normalized occupancy) came out at 0.0741.
In the case of AACGCAAG, the binding signal (normalized occupancy) was 0.073.
CGCGGCCC: the binding signal (normalized occupancy) amounted to 0.0708.
In the case of CTAAGAGC it was 0.0702.
In the case of AGACGCTG it was 0.0702.
With CTAATTGC, the binding signal (normalized occupancy) turned out to be 0.0729.
As for ATCGAACC, the binding signal (normalized occupancy) amounted to 0.0732.
In the case of TATGGTAA, the binding signal (normalized occupancy) turned out to be 0.081.
For GTGTCGTA, the binding signal (normalized occupancy) is 0.0815.
In the case of CCGAAAGG, the binding signal (normalized occupancy) worked out at 0.0699.
In the case of GAGACGTA, the binding signal (normalized occupancy) came out at 0.0761.
With TAAGGGTA, the binding signal (normalized occupancy) amounted to 0.0739.
Next, ACAATTAG: 0.0771; CCTTGGCC: 0.0689.
Regarding GACTGACA, the binding signal (normalized occupancy) is 0.0755.
As to CCCCCACC, the binding signal (normalized occupancy) came to 0.0787.
For ATTTGCGG, the binding signal (normalized occupancy) stood at 0.068.
In the case of AGTTAAAT it was 0.0717; in that of CCTTGTCA, 0.0846.
Next, AGTAACCC: 0.0796.
On to ATGACAGA, for which the binding signal (normalized occupancy) turned out to be 0.0791.
CAATGGCA: the binding signal (normalized occupancy) is 0.0773.
ATATTAAA: the binding signal (normalized occupancy) amounted to 0.0771.
As to CGCGTAGC, the binding signal (normalized occupancy) came out at 0.0692.
Next, CCCATATC: 0.0823; ATTTTTAG: 0.0756; AGAGCGAA: 0.0759.
Regarding ATGAGTAA, the binding signal (normalized occupancy) was 0.0779.
In the case of CCGACGTC it was 0.0662; in that of GTGCCTAA, 0.0821.
Take ATGTGCAC: the binding signal (normalized occupancy) was 0.0959.
Next, AAACTGCG: 0.0655; ACCTCAAC: 0.0767; AGTCAGCA: 0.0751.
Regarding GAAGTTGA, the binding signal (normalized occupancy) was found to be 0.0753.
Regarding ATTATCTA, the binding signal (normalized occupancy) was found to be 0.0841.
For TCCCGCAA, the binding signal (normalized occupancy) is 0.0737.
As for GTATTCTA, the binding signal (normalized occupancy) came to 0.0797.
Regarding CGTTGCTA, the binding signal (normalized occupancy) is 0.0843.
For TAACCCCA, the binding signal (normalized occupancy) amounted to 0.0802.
Take CAGCTCAA: the binding signal (normalized occupancy) was 0.0659.
Take CGCTCTTA: the binding signal (normalized occupancy) is 0.0705.
Consider GAACATGC, for which the binding signal (normalized occupancy) was 0.089.
Next, CGAGAGGA: 0.0739.
In the case of ATGCGCAA it was 0.0792; in that of TGCATGAA, 0.0821; in that of CCCCCTGC, 0.0849.
Turning to AAGACGAG, the binding signal (normalized occupancy) is 0.0652.
Consider ACTATGCC, for which the binding signal (normalized occupancy) was found to be 0.0749.
In the case of CGCTCAGC, the binding signal (normalized occupancy) worked out at 0.0654.
In the case of AATAGAAC it was 0.0739; in that of ATGGGGGC, 0.0831.
For the sequence CTGTCAGC, the binding signal (normalized occupancy) stood at 0.0724.
As to ACGGTAGC, the binding signal (normalized occupancy) was found to be 0.0766.
In the case of GTTTAAAA it was 0.076.
For the sequence ACACATTC, the binding signal (normalized occupancy) is 0.0866.
For the sequence ATCAGCAC, the binding signal (normalized occupancy) came out at 0.0789.
In the case of AACACTGC it was 0.0702.
Consider GCGGTAAA, for which the binding signal (normalized occupancy) worked out at 0.0732.
As to CTTGTTGC, the binding signal (normalized occupancy) was determined as 0.0728.
In the case of GAGTCGCC it was 0.072; in that of CCAATGCA, 0.0795.
In the case of ACTTGTTG, the binding signal (normalized occupancy) was found to be 0.0737.
CGGTTCGC: the binding signal (normalized occupancy) stood at 0.0651.
For the sequence CATTAGCA, the binding signal (normalized occupancy) worked out at 0.0852.
Consider CGACTCGC, for which the binding signal (normalized occupancy) amounted to 0.0679.
With CCCAGGGG, the binding signal (normalized occupancy) amounted to 0.0708.
In the case of CCGTTGGA it was 0.071; in that of GATGCTCA, 0.0734.
Take ATAGAGAT: the binding signal (normalized occupancy) was found to be 0.0751.
Regarding CCGGCGAC, the binding signal (normalized occupancy) is 0.0657.
In the case of CGGGGGTC it was 0.0772.
In the case of AGCGTAAA it was 0.0682; in that of GGTTAACA, 0.0765; in that of AAGGCCTT, 0.071.
Consider ACGAAGCT, for which the binding signal (normalized occupancy) turned out to be 0.0665.
Next, CGCTGTCC: 0.073; CCTGAGTA: 0.0728.
Take ACTGAAAA: the binding signal (normalized occupancy) was found to be 0.0764.
With CATTTTAA, the binding signal (normalized occupancy) came to 0.0765.
In the case of CCTGGTCG it was 0.0732; in that of CACTCACA, 0.0843; in that of AAACTTAG, 0.0756.
On to ACCTAGTG, for which the binding signal (normalized occupancy) amounted to 0.0786.
For AGGGTCGG, the binding signal (normalized occupancy) amounted to 0.073.
In the case of ATATAGTG it was 0.0807; in that of AGACTAGC, 0.0676.
In the case of CCACTCCC it was 0.0792.
With ATTGTAGC, the binding signal (normalized occupancy) came out at 0.0787.
For CCTATCGC, the binding signal (normalized occupancy) was 0.0756.
For the sequence CACGAAGG, the binding signal (normalized occupancy) turned out to be 0.0704.
Turning to CACAATCG, the binding signal (normalized occupancy) was 0.0756.
Consider AAGTCTCG, for which the binding signal (normalized occupancy) came out at 0.0717.
As for CAAATGGC, the binding signal (normalized occupancy) worked out at 0.0778.
In the case of ACTTCTAC it was 0.0757; in that of AAGATGAT, 0.0791; in that of TAGCGGCA, 0.0701.
On to AACGGCGC, for which the binding signal (normalized occupancy) stood at 0.0729.
ACGCACGT: the binding signal (normalized occupancy) is 0.0986.
ACAATGTG: the binding signal (normalized occupancy) stood at 0.0995.
In the case of GTTCCCTA, the binding signal (normalized occupancy) was found to be 0.0721.
On to GATTCGAC, for which the binding signal (normalized occupancy) worked out at 0.0715.
Next, CGGTATCA: 0.0795.
In the case of CCGCCGCC it was 0.0692.
Take AGTGGTGC: the binding signal (normalized occupancy) came to 0.077.
As to AGTTTTCG, the binding signal (normalized occupancy) came out at 0.0705.
As to CAATTGCA, the binding signal (normalized occupancy) came out at 0.0772.
For the sequence GGAGGGCC, the binding signal (normalized occupancy) was 0.0707.
As to CATGTGGC, the binding signal (normalized occupancy) came to 0.165.
In the case of TCTAGAAA it was 0.0769; in that of ATTCGAGC, 0.0703; in that of CCGCAGCA, 0.07.
For GGTGCTAC, the binding signal (normalized occupancy) amounted to 0.0789.
Take ATCGAAAC: the binding signal (normalized occupancy) is 0.073.
In the case of GATCGGAA, the binding signal (normalized occupancy) is 0.0717.
Next, AGACATAC: 0.0781; CCCCAAAG: 0.0697; ACCCCTCG: 0.0765.
Next, GGGGCCGA: 0.0742; CAGCGGCG: 0.0694.
As to CTCGTTAA, the binding signal (normalized occupancy) came to 0.0775.
Consider TCTCTTAA, for which the binding signal (normalized occupancy) was 0.0715.
As to CACACGCA, the binding signal (normalized occupancy) worked out at 0.0865.
Turning to CATAGGAA, the binding signal (normalized occupancy) was found to be 0.0749.
With AGTTATGC, the binding signal (normalized occupancy) came out at 0.0769.
